Data: a collection of fitness landscapes (doi:10.1016/j.celrep.2020.107928)
The full ranking holds about 81,000 sequences; the median of “one-hybrid fitness for binding NBS DNA” is about -0.1, and the highest 2% start at about 0.36. This is one part of the list.

B1: Caulobacter ParB omega fusion; a variant is named by its letters at X, in order, B8GW30 (parent)
chain: MESVVVGEPGMSEGRRGLGRGLSALLGEVDAAPAQAPGEQLGGSREAPIEILQRNPDQPRRTFREEDLEDLSNSIREKGVLQPILVRPSPDTAGEYQIVAGERAWRAAQRAGLKTVPIMVRELDDLAVLEIGIIENVQRADLNVLEEALSYKVLMEKFERTQENIAQTIGKSXSHVANXMRLLXLPDEVQSYLVSGELTAXHARAIAAAADPVALAKQIIEGGLSVRETEALARKAPNLSAGKSKGGRPPRVKDTDTQALESDLSSVLGLDVSIDHRGSTGTLTITYATLEQLDDLCNRLTRGI

Variants of: B1
Experiment: one-hybrid fitness for binding NBS DNA (the Noc-binding site; scaled: cognate 1, non-cognate 0); higher = stronger binding
Conditions: with NBS DNA site
In short: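 Pre- and post-selection plasmids were Illumina-sequenced, three replicate libraries were pooled, and any variant with under 10 reads was removed. The libraries were Caulobacter ParB with four specificity codons randomised, selected in E. coli USO through a HIS3 reporter whose site is 19 bp from the promoter. Cells grew 48 hours at 37°C on M9 without histidine, with 0.1 mM IPTG and 5 mM 3-AT. Fitness is the log change in variant-to-wild-type read ratio, rescaled against cognate and non-cognate.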

one-hybrid fitness for binding NBS DNA, 0.716:
QART

one-hybrid fitness for binding NBS DNA, 0.32:
RLLR

one-hybrid fitness for binding NBS DNA, 0.401:
RRRQ

one-hybrid fitness for binding NBS DNA, 0.645:
QQRH

one-hybrid fitness for binding NBS DNA, ≤ 0.2:
ECVT
RELF
DRLN
MLHC
YPKT
DVTK
PCRD
KWKG
KQHL
RNFF
CYKT
HAAH
PVCF
GHLE
PNAW
MCPT
NDPL
NFTF
IEPH
CAEW
TVGF
ACKY
GVRY
HTLE
DMSR
SAFG
SSRD
AAIG
EDNP
AHYV
THWG
YHLA
LADC
PSNF
QSWQ
YHGR
WKRV
HCRL
RSVW
DRCY
ADMT
RYSQ
SFPS
LTIQ
SHVW
MALI
TVVF
IDGT
PMET
DPKP
LCDF
TLTC
TTRT
LTHL
SSLT
ERKI
SVKS
VITS
KINA
GTSK
STVS
HRTI
SCQT
CCMT
VIRA
KCTR
PCDH
MFWG
RDPW
EKNR
GGFR
DAAE
DFPL
CNAG
EANC
LSGD
QFLR
TSTE
LTWT
HITA
KVCT
EVGR
YYAL
ALDD
GQRI
TDHQ
WCLN
HYNF
QNME
AHTN
RQGH
QAME
ETMD
MVKS
KDLC
MNIG
TWGC
HEKL
FTDS
DHHL
GNSM
QHKD
IQYS
QYTY
PRDP
VKSC
NHNT
KATY
LNMI
MLCR
RKVY
DALW
PMVM
VGRG
VHEC
LIIG
CNLR
YDNR
DCPS
DAPE
NWCS
KGMT
HRYY
STYT
ESMC
DWLS
WLES
NRDC
MGRE
DGHI
RMDQ
PYRT
GLRR
MISK
PQET
PGAA
RNYM
GTGC
NDNG
QRED
KSHT
VSGR
TGPR
FQSG
HSDR
LDNM
LERE
PVRE
EHLL
YPAK
DQLS
TVKK
WIPS
WLIN
TQYA
GKPT
PHTQ
RMQE
LKHD
LKLT
RLIC
EYSI
DRWS
VKTM
HTNR
RLGY
LVLD
RANV
VSKC
LLHR
TDPP
DSTP
VKLG
GVTE
KVSF
TADC
CCHT
TNQN
TLRW
RYTH
MGMS
NYRN
VDEC
MTEC
NTCF
PELE
WFNI
CCHC
ISYS
PSFQ
WLRV
AGGG
LANW
PSMF
TWQF
CPGQ
HSKV
GCTV
RMGA
IGQF
MGFS
KGCS
CVLA
IRQI
DGPS
TYTW
PFCL
NWAC
HEST
LFTF
MGSS
QDEK
EEGR
RAAF
LTRV
MAFR
KLNA
TRSK
QVGA
QRYL
ENRH
LWSM
ESVW
DWKT
KANM
HNPF
SCYG
KPHW
GISS
ACST
SEEF
HPTD
STPW
PTKE
SVLP
NFLV
TCEY
PWKQ
LMST
QHHY
VSVK
QLMG
VPVR
RVQM
KRKP
CPTV
LGHP
RPKI
FGCR
QSDD
DFLR
AQYA
NADQ
RSGI
TFIR
CTLC
RKWP
GALC
NVKF
CRHW
LDYT
IRVV
TVTC
TGNQ
RPHE
CLSD
PYHE
PDKL
AYYN
GHCW
TIES
SDVN
PTPG
NSRQ
LCYL
LVDL
PDDH
AYRG
AHQS
GRAC
NALD
MTLW
PSHS
YFPS
SERS
CDYG
RATW
RMPS
LPDE
NDIS

one-hybrid fitness for binding NBS DNA, 0.206:
QTTK

one-hybrid fitness for binding NBS DNA, 0.207:
KCNT

one-hybrid fitness for binding NBS DNA, 0.757:
QTQR

one-hybrid fitness for binding NBS DNA, 0.325:
YRRR

one-hybrid fitness for binding NBS DNA, 0.396:
KHKR

one-hybrid fitness for binding NBS DNA, 0.239:
QHRW

one-hybrid fitness for binding NBS DNA, 0.297:
QCKE

one-hybrid fitness for binding NBS DNA, 0.289:
QLCS
QMIS

one-hybrid fitness for binding NBS DNA, 0.487:
RVHT

one-hybrid fitness for binding NBS DNA, 0.563:
QTKM

one-hybrid fitness for binding NBS DNA, 0.506:
QQKK
